Some of the results follow. Repeats are few or missing, and single values can be far off.
Columns and labels:
Experiment in all cases: cell viability relative to vehicle (% of vehicle); basal-like triple-negative breast cancer lines; higher = less cytotoxic
Settings in all cases: 10 µM; 72 h
HCC-1143 = tested on: HCC-1143
HCC-1187 = tested on: HCC-1187
MDA-468 = tested on: MDA-468
SUM-149 = tested on: SUM-149
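Note: stably firefly luciferase-GFP labeled cells in 96-well plates, viability read as luciferase photon flux after d-luciferin addition, treated wells normalized to vehicle wells, single-dose high-throughput screen.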

Structure (SMILES) | cell viability (HCC-1143) | cell viability (HCC-1187) | cell viability (MDA-468) | cell viability (SUM-149)
CCOC(=O)C1=C(COCCN)NC(C)=C(C(=O)OC)C1c1ccccc1Cl.O=S(=O)(O)c1ccccc1 (stereo unspecified) [Amlodipine Besylate] | 89.7 | 73.7 | 95.2 | 87.4
NC(=O)NO [Hydroxyurea] | 83.7 | 95.1 | 115 | 102
CCOC(=O)c1c(C)n(C)c2ccc(O)cc12 [Mecarbinate] | 73.3 | 96 | 97.4 | 97.2
O=C(O)/C=C/c1ccc(O)c(O)c1 [Caffeic acid] | 78.5 | 80 | 106 | 102
COc1cc2c(cc1Cc1cccc(Cl)c1F)c(=O)c(C(=O)O)cn2C(CO)C(C)C (stereo unspecified) [Elvitegravir (GS-9137)] | 52.5 | 49.7 | 52.2 | 90.5
CNCC(O)c1ccc(O)c(O)c1.O=C(O)C(O)C(O)C(=O)O (stereo unspecified) [Epinephrine Bitartrate] | 89.4 | 101 | 167 | 113
CC(C)(C(=O)O)c1ccc(C(O)CCCN2CCC(C(O)(c3ccccc3)c3ccccc3)CC2)cc1.Cl (stereo unspecified) [Fexofenadine HCl] | 80.9 | 92.6 | 92.9 | 124
COc1cc(Nc2ncc3c(n2)-c2ccc(Cl)cc2C(c2c(F)cccc2OC)=NC3)ccc1C(=O)O [MLN8237 (Alisertib)] | 66.2 | 52.7 | 39.3 | 86.5
CC12CCC(=O)C=C1CCC1C2C(O)CC2(C)C1CCC2(O)C(=O)CO (stereo unspecified) [Hydrocortisone] | 98 | 136 | 165 | 131
Nc1cccc2c1C(=O)N(C1CCC(=O)NC1=O)C2=O (stereo unspecified) [Pomalidomide (CC-4047)] | 93.7 | 73.7 | 82.7 | 118
O=c1ncnc2[nH][nH]cc1-2 [Allopurinol] | 75.9 | 105 | 92 | 91.9
CCC(C)C(=O)OC1CCC=C2C=CC(C)C(CCC3CC(O)CC(=O)O3)C21 (stereo unspecified) [Mevastatin] | 86.5 | 91.2 | 78.5 | 63.8
Cc1cc(C2CCCCC2)n(O)c(=O)c1 [Ciclopirox] | 58.7 | 50.7 | 31.6 | 7.88
CCN(CC)CC#CCOC(=O)C(O)(c1ccccc1)C1CCCCC1.Cl (stereo unspecified) [Oxybutynin chloride] | 98.9 | 80.5 | 138 | 120
Cc1c(OCC(F)(F)F)ccnc1CS(=O)c1nc2ccccc2[n-]1.[Na+] (stereo unspecified) [Lansoprazole sodium] | 188 |  | 171 | 142
COc1ccc(CN2CCN(C(c3ccc(F)cc3)c3ccc(F)cc3)CC2)c(OC)c1OC.Cl.Cl [Lomerizine HCl] | 72 | 87.5 | 101 | 76.9
COc1ccccc1OCC(O)COC(N)=O (stereo unspecified) [Methyocarbamol] | 88.1 | 124 | 110 | 94.3
Cc1ccc(C2OC(CO)C(O)C(O)C2O)cc1Cc1ccc(-c2ccc(F)cc2)s1 (stereo unspecified) [Canagliflozin] | 79.5 | 95.1 | 84 | 91.5
CNCCC(Oc1cccc2ccccc12)c1cccs1.Cl (stereo unspecified) [Duloxetine HCl] | 91.7 | 42.7 | 76.4 | 58.1
CCC1OC(=O)CC(O)C(C)C(OC2OC(C)C(OC3CC(C)(O)C(O)C(C)O3)C(N(C)C)C2O)C(CC=O)CC(C)C(=O)C=CC(C)=CC1COC1OC(C)C(O)C(OC)C1OC.O=C(O)C(O)C(O)C(=O)O (stereo unspecified) [Tylosin tartrate] | 96.4 | 111 | 94.2 | 111
Cc1oncc1C(=O)Nc1ccc(C(F)(F)F)cc1 [Leflunomide] |  | 136 | 159 | 
CCC(=O)OCC(=O)C1(OC(=O)CC)C(C)CC2C3CCC4=CC(=O)C=CC4(C)C3(Cl)C(O)CC21C (stereo unspecified) [Beclomethasone dipropionate] | 104 | 99.5 |  | 167
CC12CCC(O)CC1=CCC1C2CCC2(C)C(c3cccnc3)=CCC12 (stereo unspecified) [Abiraterone] | 93.1 | 103 | 119 | 152
CC(C(=O)O)c1ccc2c(c1)CC(=O)c1ccccc1S2 (stereo unspecified) [Zaltoprofen] | 114 | 93.4 | 112 | 114
CC(O)=C(C#N)C(=O)Nc1ccc(C(F)(F)F)cc1 [Teriflunomide] |  | 145 |  | 
Cc1c(OCC(F)(F)F)ccnc1CS(=O)c1nc2ccccc2[nH]1 (stereo unspecified) [Dexlansoprazole] | 162 | 121 |  | 193
